By IC50 is meant the dose at which the fit gives 50% viability; fits outside the tested doses are given as limits. The AUC spans the tested range (256-fold, ending at the top dose) of the same fit; the more sensitive the line, the further below 1. The top dose, if marked as inferred, comes from the curve model; the source does not state it. For part of these data: Where an entry number is given, a second screen of the drug exists; the two often differ.
Assays:
[1] = compound: NC(=O)c1ncn([C@@H]2O[C@H](CO)[C@@H](O)[C@H]2O)c1N [AICAR]; experiment: Viability of human cancer cell lines after 72 h of drug (GDSC screen); conditions: top dose 2000 µM; top dose inferred
Description: (§1)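 Human cancer cell lines in 384-well plates, medium with 10% serum, drug for 72 h over a 256-fold dose range (nine 2-fold or five 4-fold steps up to the top dose). Adherent lines were fixed and stained with the nucleic acid dye Syto60, suspension lines read with resazurin; signal relative to control wells, capped at 0 and 100%. One two-parameter sigmoid per drug and line, fitted in a mixed model over all curves with the slope shared within a line.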

[2] = compound: O=c1[nH]c2ccccc2n1C1CCN(Cc2ccc(-c3[nH]c4cc5ncnc5cc4nc3-c3ccccc3)cc2)CC1 [AKT inhibitor VIII]; experiment: as above; conditions: top dose inferred
Description: as §1

[3] = top dose 2.56 µM, screen: GDSC drug entry 171
[4] = top dose 10.24 µM, screen: GDSC drug entry 228

## LB373-MEL-D (melanoma, adherent)
[1]
  AUC: 0.979
  IC50: > 2000 µM
[2]; [3]
  AUC: 0.989
  IC50: > 2.56 µM
[2]; [4]
  AUC: 0.98
  IC50: > 10.2 µM

## SUP-M2 (anaplastic large cell lymphoma, suspension)
[1]
  AUC: 0.698
  IC50: 385 µM
[2]; [3]
  AUC: 0.994
  IC50: > 2.56 µM
[2]; [4]
  AUC: 0.592
  IC50: 1.07 µM

## T-T (oesophagus, adherent)
[1]
  AUC: 0.697
  IC50: 445 µM
[2]; [3]
  AUC: 0.886
  IC50: > 2.56 µM
[2]; [4]
  AUC: 0.951
  IC50: > 10.2 µM

## LS-1034 (large intestine, adherent)
[1]
  AUC: 0.947
  IC50: > 2000 µM
[2]; [3]
  AUC: 0.959
  IC50: > 2.56 µM
[2]; [4]
  AUC: 0.908
  IC50: > 10.2 µM

## NCI-H1755 (lung adenocarcinoma, adherent)
[1]
  AUC: 0.883
  IC50: > 2000 µM
[2]; [3]
  AUC: 0.746
  IC50: 0.927 µM
[2]; [4]
  AUC: 0.535
  IC50: 0.808 µM

## NCI-H2122 (lung adenocarcinoma, adherent)
[1]
  AUC: 0.731
  IC50: 541 µM
[2]; [3]
  AUC: 0.943
  IC50: > 2.56 µM
[2]; [4]
  AUC: 0.927
  IC50: > 10.2 µM

## HL-60 (acute myeloid leukaemia, suspension)
[1]
  AUC: 0.629
  IC50: 273 µM
[2]; [3]
  AUC: 0.98
  IC50: > 2.56 µM
[2]; [4]
  AUC: 0.861
  IC50: 7.26 µM

## QIMR-WIL (acute myeloid leukaemia, suspension)
[1]
  AUC: 0.828
  IC50: 1180 µM
[2]; [3]
  AUC: 0.961
  IC50: > 2.56 µM
[2]; [4]
  AUC: 0.569
  IC50: 0.983 µM

## NCI-H1963 (small cell lung carcinoma, suspension)
[1]
  AUC: 0.986
  IC50: > 2000 µM
[2]; [3]
  AUC: 0.986
  IC50: > 2.56 µM

## SK-HEP-1 (liver, adherent)
[1]
  AUC: 0.836
  IC50: 1200 µM
[2]; [3]
  AUC: 0.978
  IC50: > 2.56 µM
[2]; [4]
  AUC: 0.989
  IC50: > 10.2 µM

## MC-IXC (neuroblastoma, adherent)
[1]
  AUC: 0.914
  IC50: 1500 µM
[2]; [3]
  AUC: 0.877
  IC50: 1.45 µM
[2]; [4]
  AUC: 0.895
  IC50: 6.63 µM

## KYAE-1 (oesophagus, suspension)
[1]
  AUC: 0.888
  IC50: > 2000 µM
[2]; [4]
  AUC: 0.459
  IC50: 0.49 µM

## GDM-1 (acute myeloid leukaemia, suspension)
[1]
  AUC: 0.795
  IC50: 886 µM
[2]; [3]
  AUC: 0.942
  IC50: > 2.56 µM
[2]; [4]
  AUC: 0.407
  IC50: 0.36 µM

## HCC-15 (lung squamous cell carcinoma, adherent)
[1]
  AUC: 0.871
  IC50: > 2000 µM
[2]; [3]
  AUC: 0.946
  IC50: > 2.56 µM
[2]; [4]
  AUC: 0.894
  IC50: > 10.2 µM

## DOK (head and neck, adherent)
[1]
  AUC: 0.69
  IC50: 565 µM
[2]; [3]
  AUC: 0.789
  IC50: 1.83 µM
[2]; [4]
  AUC: 0.883
  IC50: > 10.2 µM

## SK-MEL-5 (melanoma, adherent)
[1]
  AUC: 0.978
  IC50: > 2000 µM
[2]; [4]
  AUC: 0.849
  IC50: > 10.2 µM

## no-11 (glioma, adherent)
[1]
  AUC: 0.934
  IC50: > 2000 µM
[2]; [3]
  AUC: 0.939
  IC50: > 2.56 µM
[2]; [4]
  AUC: 0.918
  IC50: > 10.2 µM

## GCIY (stomach, adherent)
[1]
  AUC: 0.984
  IC50: > 2000 µM
[2]; [3]
  AUC: 0.96
  IC50: > 2.56 µM
[2]; [4]
  AUC: 0.944
  IC50: > 10.2 µM

## NCI-H1836 (small cell lung carcinoma, suspension)
[1]
  AUC: 0.927
  IC50: > 2000 µM
[2]; [3]
  AUC: 0.981
  IC50: > 2.56 µM
[2]; [4]
  AUC: 0.957
  IC50: > 10.2 µM

## COLO-800 (melanoma, adherent)
[1]
  AUC: 0.928
  IC50: > 2000 µM
[2]; [3]
  AUC: 0.985
  IC50: > 2.56 µM
[2]; [4]
  AUC: 0.878
  IC50: 9.89 µM

## SW780 (bladder, adherent)
[1]
  AUC: 0.882
  IC50: > 2000 µM
[2]; [3]
  AUC: 0.871
  IC50: > 2.56 µM
[2]; [4]
  AUC: 0.986
  IC50: > 10.2 µM

## OV-90 (ovary, adherent)
[1]
  AUC: 0.965
  IC50: > 2000 µM
[2]; [3]
  AUC: 0.936
  IC50: > 2.56 µM
[2]; [4]
  AUC: 0.643
  IC50: 1.79 µM

## SW620 (large intestine, adherent)
[1]
  AUC: 0.95
  IC50: > 2000 µM
[2]; [3]
  AUC: 0.99
  IC50: > 2.56 µM
[2]; [4]
  AUC: 0.799
  IC50: 4.26 µM

## T84 (large intestine, adherent)
[1]
  AUC: 0.962
  IC50: > 2000 µM
[2]; [3]
  AUC: 0.979
  IC50: > 2.56 µM
[2]; [4]
  AUC: 0.873
  IC50: 10.1 µM

## OE19 (oesophagus, adherent)
[1]
  AUC: 0.897
  IC50: > 2000 µM
[2]; [3]
  AUC: 0.921
  IC50: > 2.56 µM
[2]; [4]
  AUC: 0.971
  IC50: > 10.2 µM

## KYSE-520 (oesophagus, adherent)
[1]
  AUC: 0.679
  IC50: 473 µM
[2]; [3]
  AUC: 0.91
  IC50: > 2.56 µM
[2]; [4]
  AUC: 0.865
  IC50: > 10.2 µM

## OVTOKO (ovary, adherent)
[1]
  AUC: 0.813
  IC50: 1470 µM
[2]; [3]
  AUC: 0.918
  IC50: > 2.56 µM
[2]; [4]
  AUC: 0.919
  IC50: > 10.2 µM

## MDA-MB-415 (breast, adherent)
[1]
  AUC: 0.748
  IC50: 840 µM
[2]; [3]
  AUC: 0.794
  IC50: 1.66 µM
[2]; [4]
  AUC: 0.86
  IC50: > 10.2 µM

## DU-145 (prostate, adherent)
[1]
  AUC: 0.897
  IC50: > 2000 µM
[2]; [3]
  AUC: 0.947
  IC50: > 2.56 µM
[2]; [4]
  AUC: 0.982
  IC50: > 10.2 µM
